Experimental data: the supplement of paper PMC4604168 (melanoma cell lines)
Some of the results follow. Repeats are few or missing, and single values can be far off.

The molecules below were run on COLO829 (assay: cell count relative to DMSO control; melanoma cells; higher = more viable cells). Settings: library dose: standard library concentration; 72 h.
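Further: cells treated in 1,536-well plates, then fixed and DAPI-stained, with nuclei counted from automated high-throughput microscope images.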

Row | SMILES | cell count [%]
1 | CC(C)(C)c1cnc(CSc2cnc(NC(=O)C3CCNCC3)s2)o1 + COc1cc2c(Oc3ccc4[nH]c(C)cc4c3F)ncnc2cc1OCCCN1CCCC1 [cediranib] (first compound 0.05 µM, partner dose 2 µM) | 122
2 | Cc1ccc(NC(=O)c2cccc(N(C)C)c2)cc1NC(=O)c1ccc(O)cc1 + CO[C@@H]1[C@H](N(C)C(=O)c2ccccc2)C[C@H]2O[C@]1(C)n1c3ccccc3c3c4c(c5c6ccccc6n2c5c31)C(=O)NC4 [Midostaurin] (first compound 10 µM, partner dose 0.4 µM) | 82.5
3 | CCCCCCCCc1ccc(CCC(N)(CO)CO)cc1 [fingolimod] + Oc1nc(-c2ccc(C(F)(F)F)cc2)nc2c1CSCC2 [XAV939] (first compound 10 µM, partner dose 10 µM) | 83.3
4 | Cc1ccc(NC(=O)c2cccc(N(C)C)c2)cc1NC(=O)c1ccc(O)cc1 + CN(NC(=O)CC(=O)NN(C)C(=S)c1ccccc1)C(=S)c1ccccc1 [STA4783] (first compound 10 µM, partner dose 0.03 µM) | 51.2

These molecules were tested on G361 in the same assay as above. Settings: library dose: standard library concentration; 72 h.

Row | SMILES | cell count [%]
5 | CCCCCCCCc1ccc(CCC(N)(CO)CO)cc1 [fingolimod] + Cc1cc([N+](=O)[O-])ccc1NS(=O)(=O)c1cc(Cl)ccc1Cl [FH535] (first compound 10 µM, partner dose 5 µM) | 32.3
6 | CN(NC(=O)CC(=O)NN(C)C(=S)c1ccccc1)C(=S)c1ccccc1 + COc1cc2c(Oc3ccc4[nH]c(C)cc4c3F)ncnc2cc1OCCCN1CCCC1 [cediranib] (first compound 0.03 µM, partner dose 2 µM) | 34.3
7 | CCc1ccc(CCOc2ccc(CC3SC(=O)NC3=O)cc2)nc1 (stereo not given) [pioglitazone] + O=C1NC(=O)/C(=C/c2ccc(-c3ccc(F)cc3O)o2)S1 [AS252424] (first compound 10 µM, partner dose 5 µM) | 87.3
8 | Cc1ccc(NC(=O)c2cccc(N(C)C)c2)cc1NC(=O)c1ccc(O)cc1 + CCCCCCCCCCCC1=C(O)C(=O)C=C(O)C1=O [Embelin] (first compound 10 µM, partner dose 6 µM) | 79.3
9 | Cc1ccc(NC(=O)c2cccc(N(C)C)c2)cc1NC(=O)c1ccc(O)cc1 + COc1ccc2c(c1)CCC1C2CCC2(C)C(NCCCCCCN3C(=O)C=CC3=O)CCC12 [U73122] (first compound 10 µM, partner dose 2 µM) | 77.5
10 | CC(C)(C)c1cnc(CSc2cnc(NC(=O)C3CCNCC3)s2)o1 + CN(NC(=O)CC(=O)NN(C)C(=S)c1ccccc1)C(=S)c1ccccc1 [STA4783] (first compound 0.05 µM, partner dose 0.03 µM) | 37.5
11 | CN(NC(=O)CC(=O)NN(C)C(=S)c1ccccc1)C(=S)c1ccccc1 + COc1cc(N2CCC(N3CCN(C)CC3)CC2)ccc1Nc1ncc(Cl)c(Nc2ccccc2S(=O)(=O)C(C)C)n1 [NVP-TAE684] (first compound 0.03 µM, partner dose 0.4 µM) | 33.2
12 | CN(NC(=O)CC(=O)NN(C)C(=S)c1ccccc1)C(=S)c1ccccc1 + CCCCCCCCCCCC1=C(O)C(=O)C=C(O)C1=O [Embelin] (first compound 0.03 µM, partner dose 6 µM) | 20.6
13 | CC(C)(C)c1cnc(CSc2cnc(NC(=O)C3CCNCC3)s2)o1 + O=C(Nc1ccccc1)c1cc([N+](=O)[O-])ccc1Cl [GW9662] (first compound 0.05 µM, partner dose 10 µM) | 86.7
14 | CCCCCCCCc1ccc(CCC(N)(CO)CO)cc1 [fingolimod] + CCCS(=O)(=O)Nc1ccc(F)c(C(=O)c2c[nH]c3ncc(Cl)cc23)c1F [PLX4720] (first compound 10 µM, partner dose 0.4 µM) | 1.05
15 | CCCCCCCCc1ccc(CCC(N)(CO)CO)cc1 [fingolimod] + O=C(O)C(=O)Nc1sc2c(c1C(=O)O)CCNC2 [TCS401] (first compound 10 µM, partner dose 8.33333 µM) | 0.76
16 | CCc1ccc(CCOc2ccc(CC3SC(=O)NC3=O)cc2)nc1 (stereo not given) [pioglitazone] + COC(=O)c1sccc1S(=O)(=O)Nc1ccc(Nc2ccccc2)cc1OC [GSK0660] (first compound 10 µM, partner dose 5 µM) | 109
17 | COc1cc2c(Oc3ccc4[nH]c(C)cc4c3F)ncnc2cc1OCCCN1CCCC1 [cediranib] + COc1cc(N2CCC(N3CCN(C)CC3)CC2)ccc1Nc1ncc(Cl)c(Nc2ccccc2S(=O)(=O)C(C)C)n1 [NVP-TAE684] (first compound 2 µM, partner dose 0.4 µM) | 79.8
18 | CC(C)(C)c1cnc(CSc2cnc(NC(=O)C3CCNCC3)s2)o1 + CCCCCCCCCCCC1=C(O)C(=O)C=C(O)C1=O [Embelin] (first compound 0.05 µM, partner dose 6 µM) | 70.6
19 | CCCCCCCCc1ccc(CCC(N)(CO)CO)cc1 [fingolimod] + CN1CCN(c2ccc3nc(-c4c(N)c5c(F)cccc5[nH]c4=O)[nH]c3c2)CC1 [Dovitinib] (first compound 10 µM, partner dose 0.5 µM) | 0.256
20 | CCCCCCCCc1ccc(CCC(N)(CO)CO)cc1 [fingolimod] + COc1ccc2c(c1)CCC1C2CCC2(C)C(NCCCCCCN3C(=O)C=CC3=O)CCC12 [U73122] (first compound 10 µM, partner dose 2 µM) | 3.66

Row | SMILES | cell count [%]
21 | Cc1ccc(NC(=O)c2cccc(N(C)C)c2)cc1NC(=O)c1ccc(O)cc1 + Cc1cc(N2CCOCC2)cc2[nH]c(-c3c(NC[C@@H](O)c4cccc(Cl)c4)cc[nH]c3=O)nc12 [BMS536924] (first compound 10 µM, partner dose 1 µM) | 90.7
22 | NC(=O)c1ccc(N(C(N)=O)c2c(F)cccc2F)nc1-c1ccc(F)cc1F + CCCCCCCCCCCC1=C(O)C(=O)C=C(O)C1=O [Embelin] (first compound 2 µM, partner dose 6 µM) | 70.3
23 | NC(=O)c1ccc(N(C(N)=O)c2c(F)cccc2F)nc1-c1ccc(F)cc1F + Cn1nnc2c(C(N)=O)ncn2c1=O [temozolomide] (first compound 2 µM, partner dose 10 µM) | 92
24 | CN(NC(=O)CC(=O)NN(C)C(=S)c1ccccc1)C(=S)c1ccccc1 + COc1ccc2c(c1)CCC1C2CCC2(C)C(NCCCCCCN3C(=O)C=CC3=O)CCC12 [U73122] (first compound 0.03 µM, partner dose 2 µM) | 77.5
25 | NC(=O)c1ccc(N(C(N)=O)c2c(F)cccc2F)nc1-c1ccc(F)cc1F + CN(NC(=O)CC(=O)NN(C)C(=S)c1ccccc1)C(=S)c1ccccc1 [STA4783] (first compound 2 µM, partner dose 0.03 µM) | 38.7
26 | Cc1ccc(NC(=O)c2cccc(N(C)C)c2)cc1NC(=O)c1ccc(O)cc1 + O=C(Nc1cccc(Cl)c1)Nc1ncc(CCNc2ncnc3ccsc23)s1 [SNS314] (first compound 10 µM, partner dose 0.004 µM) | 48.7
27 | CCCCCCCCc1ccc(CCC(N)(CO)CO)cc1 [fingolimod] + COC(=O)c1sccc1S(=O)(=O)Nc1ccc(Nc2ccccc2)cc1OC [GSK0660] (first compound 10 µM, partner dose 5 µM) | 0.822
28 | CCCCCCCCc1ccc(CCC(N)(CO)CO)cc1 [fingolimod] + CCCCCCCCCCCC1=C(O)C(=O)C=C(O)C1=O [Embelin] (first compound 10 µM, partner dose 6 µM) | 1.11
29 | NC(=O)c1ccc(N(C(N)=O)c2c(F)cccc2F)nc1-c1ccc(F)cc1F + CN1CCN(c2ccc3nc(-c4c(N)c5c(F)cccc5[nH]c4=O)[nH]c3c2)CC1 [Dovitinib] (first compound 2 µM, partner dose 0.5 µM) | 73.1
30 | CC(C)(C)c1cnc(CSc2cnc(NC(=O)C3CCNCC3)s2)o1 + NCC(=O)Nc1ccc(-n2nc(C(F)(F)F)cc2-c2ccc3c(ccc4ccccc43)c2)cc1 [OSU03012] (first compound 0.05 µM, partner dose 5 µM) | 76
31 | CCCCCCCCc1ccc(CCC(N)(CO)CO)cc1 [fingolimod] + NC1(c2ccc(-c3nc4ccn5c(=O)[nH]nc5c4cc3-c3ccccc3)cc2)CCC1 [MK2206] (first compound 10 µM, partner dose 2 µM) | 1.49
32 | CC(C)(C)c1cnc(CSc2cnc(NC(=O)C3CCNCC3)s2)o1 + Oc1cc(-c2nc(-c3ccccc3)[nH]c2-c2ccncc2)ccc1Cl [L779450] (first compound 0.05 µM, partner dose 1 µM) | 68.7
33 | CCc1ccc(CCOc2ccc(CC3SC(=O)NC3=O)cc2)nc1 (stereo not given) [pioglitazone] + Oc1nc(-c2ccc(C(F)(F)F)cc2)nc2c1CSCC2 [XAV939] (first compound 10 µM, partner dose 10 µM) | 94.9
34 | COc1cc2c(Oc3ccc4[nH]c(C)cc4c3F)ncnc2cc1OCCCN1CCCC1 [cediranib] + Cn1cc(/C=C2\C(=O)Nc3cccnc32)c2ccccc21 [GW441756] (first compound 2 µM, partner dose 2 µM) | 86.8
35 | CCCCCCCCc1ccc(CCC(N)(CO)CO)cc1 [fingolimod] + Cn1cncc1[C@@](N)(c1ccc(Cl)cc1)c1ccc2c(c1)c(-c1cccc(Cl)c1)cc(=O)n2C [tipifarnib] (first compound 10 µM, partner dose 0.05 µM) | 0.261
